From article PMC11864811
No constants are given. Whether binding was seen depends on the method and setting. For some of these results: Binding seen in cells or lysates may run through a third protein. Some results given as binding are weak or reduced against the parent protein; the word gives no strength. One block for each substance: values may come before it.

The chains behind the UniProt entries cited, without tags or fusion partners.
UniProt P27695: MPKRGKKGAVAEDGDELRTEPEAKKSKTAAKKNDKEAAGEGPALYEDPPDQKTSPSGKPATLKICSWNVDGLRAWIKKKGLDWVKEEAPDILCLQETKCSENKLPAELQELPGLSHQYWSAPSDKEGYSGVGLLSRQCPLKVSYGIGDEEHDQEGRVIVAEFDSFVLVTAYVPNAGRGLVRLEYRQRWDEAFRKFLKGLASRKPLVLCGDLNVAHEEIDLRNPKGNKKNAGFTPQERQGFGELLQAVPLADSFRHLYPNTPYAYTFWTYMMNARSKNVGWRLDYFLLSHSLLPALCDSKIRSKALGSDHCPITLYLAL
UniProt P39748: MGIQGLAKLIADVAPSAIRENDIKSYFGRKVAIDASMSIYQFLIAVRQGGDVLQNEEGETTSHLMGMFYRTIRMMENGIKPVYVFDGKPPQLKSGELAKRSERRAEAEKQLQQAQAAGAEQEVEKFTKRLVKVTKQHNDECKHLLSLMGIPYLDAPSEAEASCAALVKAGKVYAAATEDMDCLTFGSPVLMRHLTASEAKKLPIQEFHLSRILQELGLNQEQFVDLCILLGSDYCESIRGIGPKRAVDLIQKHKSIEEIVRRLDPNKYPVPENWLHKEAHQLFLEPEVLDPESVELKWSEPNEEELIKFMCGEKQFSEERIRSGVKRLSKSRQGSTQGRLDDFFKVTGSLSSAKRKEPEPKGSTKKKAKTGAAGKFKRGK
UniProt P18858: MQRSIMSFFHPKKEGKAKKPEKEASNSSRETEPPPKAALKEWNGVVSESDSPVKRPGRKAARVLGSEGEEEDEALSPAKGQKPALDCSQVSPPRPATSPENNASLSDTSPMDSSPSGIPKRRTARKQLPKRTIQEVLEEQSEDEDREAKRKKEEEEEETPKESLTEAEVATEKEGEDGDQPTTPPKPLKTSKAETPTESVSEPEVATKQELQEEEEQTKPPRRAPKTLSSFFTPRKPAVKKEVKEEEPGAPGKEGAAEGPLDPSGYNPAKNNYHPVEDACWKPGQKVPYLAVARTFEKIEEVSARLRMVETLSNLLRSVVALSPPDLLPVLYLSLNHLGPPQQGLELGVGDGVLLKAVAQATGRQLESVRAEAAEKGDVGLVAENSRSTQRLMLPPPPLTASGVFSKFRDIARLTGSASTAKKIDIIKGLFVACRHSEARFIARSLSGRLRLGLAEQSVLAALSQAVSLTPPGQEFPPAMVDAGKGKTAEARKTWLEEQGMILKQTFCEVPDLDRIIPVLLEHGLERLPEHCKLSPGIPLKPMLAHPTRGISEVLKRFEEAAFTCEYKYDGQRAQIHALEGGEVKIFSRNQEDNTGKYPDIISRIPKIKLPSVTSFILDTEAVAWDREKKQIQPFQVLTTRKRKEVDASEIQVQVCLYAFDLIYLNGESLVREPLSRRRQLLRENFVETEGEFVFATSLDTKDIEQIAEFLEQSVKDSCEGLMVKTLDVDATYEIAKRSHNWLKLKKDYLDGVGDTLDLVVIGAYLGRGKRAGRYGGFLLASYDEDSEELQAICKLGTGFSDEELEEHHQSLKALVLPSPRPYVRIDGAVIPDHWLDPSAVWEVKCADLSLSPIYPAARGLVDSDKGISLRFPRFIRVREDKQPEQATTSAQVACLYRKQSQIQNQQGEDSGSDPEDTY
UniProt O15527: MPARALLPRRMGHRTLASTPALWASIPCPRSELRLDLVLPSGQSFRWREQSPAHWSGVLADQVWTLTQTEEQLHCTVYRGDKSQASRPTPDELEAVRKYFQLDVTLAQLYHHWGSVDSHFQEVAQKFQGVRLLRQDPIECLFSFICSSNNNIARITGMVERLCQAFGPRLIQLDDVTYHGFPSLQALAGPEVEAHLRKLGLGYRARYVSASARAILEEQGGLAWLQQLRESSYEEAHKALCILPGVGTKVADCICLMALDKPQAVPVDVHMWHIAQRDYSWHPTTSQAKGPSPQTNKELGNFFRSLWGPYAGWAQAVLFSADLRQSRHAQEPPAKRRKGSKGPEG
UniProt Q2NKJ3: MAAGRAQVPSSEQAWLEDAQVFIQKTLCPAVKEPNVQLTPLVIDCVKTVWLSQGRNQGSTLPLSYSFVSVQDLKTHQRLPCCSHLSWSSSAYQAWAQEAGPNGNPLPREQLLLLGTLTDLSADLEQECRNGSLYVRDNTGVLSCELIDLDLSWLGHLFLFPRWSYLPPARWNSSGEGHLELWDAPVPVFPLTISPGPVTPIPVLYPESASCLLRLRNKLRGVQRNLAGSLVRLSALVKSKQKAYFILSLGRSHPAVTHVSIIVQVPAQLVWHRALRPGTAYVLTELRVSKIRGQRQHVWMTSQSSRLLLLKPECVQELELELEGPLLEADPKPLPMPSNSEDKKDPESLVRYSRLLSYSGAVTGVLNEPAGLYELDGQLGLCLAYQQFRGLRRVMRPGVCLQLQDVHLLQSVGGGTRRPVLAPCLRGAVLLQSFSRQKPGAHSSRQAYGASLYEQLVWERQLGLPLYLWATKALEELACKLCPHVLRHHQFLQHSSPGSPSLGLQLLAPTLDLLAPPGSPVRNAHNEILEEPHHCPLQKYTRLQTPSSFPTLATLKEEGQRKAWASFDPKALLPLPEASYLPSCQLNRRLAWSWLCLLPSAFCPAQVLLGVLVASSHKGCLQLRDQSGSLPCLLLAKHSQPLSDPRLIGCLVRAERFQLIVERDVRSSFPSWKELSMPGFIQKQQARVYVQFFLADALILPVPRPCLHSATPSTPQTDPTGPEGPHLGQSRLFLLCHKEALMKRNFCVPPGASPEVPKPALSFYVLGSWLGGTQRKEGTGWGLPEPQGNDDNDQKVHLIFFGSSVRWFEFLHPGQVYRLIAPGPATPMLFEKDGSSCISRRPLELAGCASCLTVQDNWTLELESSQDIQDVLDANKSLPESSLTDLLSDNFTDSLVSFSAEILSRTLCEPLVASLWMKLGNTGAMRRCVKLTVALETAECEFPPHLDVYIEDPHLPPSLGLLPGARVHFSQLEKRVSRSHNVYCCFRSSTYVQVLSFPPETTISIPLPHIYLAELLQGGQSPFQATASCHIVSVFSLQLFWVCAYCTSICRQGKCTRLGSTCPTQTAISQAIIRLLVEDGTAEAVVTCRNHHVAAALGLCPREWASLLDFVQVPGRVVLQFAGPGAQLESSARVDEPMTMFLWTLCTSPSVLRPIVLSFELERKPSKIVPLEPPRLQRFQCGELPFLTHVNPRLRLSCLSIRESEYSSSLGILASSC
UniProt Q9H668: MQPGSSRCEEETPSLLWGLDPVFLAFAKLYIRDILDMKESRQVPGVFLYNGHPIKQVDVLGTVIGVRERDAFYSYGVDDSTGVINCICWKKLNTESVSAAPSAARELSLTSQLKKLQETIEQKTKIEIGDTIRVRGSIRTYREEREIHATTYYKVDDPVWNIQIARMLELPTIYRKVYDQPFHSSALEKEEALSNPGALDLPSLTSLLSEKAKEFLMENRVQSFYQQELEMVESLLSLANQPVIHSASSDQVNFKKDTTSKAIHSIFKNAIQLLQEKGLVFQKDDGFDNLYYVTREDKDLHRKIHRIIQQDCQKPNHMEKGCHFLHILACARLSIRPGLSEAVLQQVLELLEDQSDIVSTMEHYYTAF
UniProt Q86WV5: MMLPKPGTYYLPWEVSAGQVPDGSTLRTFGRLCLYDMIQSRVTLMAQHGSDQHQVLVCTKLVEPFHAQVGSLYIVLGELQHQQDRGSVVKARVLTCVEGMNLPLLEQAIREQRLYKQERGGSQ

Experiments:
[1] = target: AP endonuclease 1 (APE1), endogenous (human (endogenous in HEK293T)) (UniProt P27695); test: co-IP; HEK293T cells overexpressing one CST subunit (Flag-CTC1, Myc-STN1 or Flag-TEN1) for 24 h, untreated or 200 μM H2O2 for 2 h; RIPA lysates treated with benzonase; endogenous BER protein immunoprecipitated (Dynabeads protein G), blot with anti-FLAG or anti-Myc
[2] = target: Flap endonuclease 1 (FEN1), endogenous (human (endogenous in HEK293T)) (UniProt P39748); test: as above
[3] = target: DNA ligase I (LigI), endogenous (human (endogenous in HEK293T)) (UniProt P18858); test: as above
[4] = target: 8-oxo-guanine glycosylase (OGG1), endogenous (human (endogenous in HeLa and HEK293T)) (UniProt O15527); test: as above
[5] = target: Human CST complex (CTC1-STN1-TEN1) (human) (UniProt Q2NKJ3+Q9H668+Q86WV5); test: pull-down; CST complex incubated with one His-tagged BER protein in a 1:1 ratio for 2 h, then on Flag beads for 4 h to pull down Flag-CTC1; input, flowthrough and eluate probed with anti-His; both purified

binding [1]: binds
binding [2]: binds
binding [3]: binds weakly
binding [4]: binds weakly
Substance: FLAG-CTC1 (from UniProt Q2NKJ3 1-1217)

binding [5]: binds
Substance: Recombinant human LIG1 (6X-His tagged) (from UniProt P18858 1-919) (enzyme)

The next lines start with the substance.

Substance: FLAG-TEN1 (from UniProt Q86WV5 1-123)
binding [1]: no binding
binding [2]: no binding
binding [3]: binds
binding [4]: no binding

Substance: Myc-STN1 (from UniProt Q9H668 1-368)
binding [1]: binds
binding [2]: binds
binding [4]: binds

Substance: Recombinant human OGG1 (6X-His tagged) (from UniProt O15527 1-345) (enzyme)
binding [5]: binds
